The values that follow come from PMC4336329 (PLoS ONE, 2015).

Hit rate of the full screen: of about 310,000 compounds, about 2,200 (0.71%) showed an effect of 50% or more. Effects have a minus sign here. The list shows a part of the results.

This experiment deals with human ether-à-go-go-related gene (hERG) potassium channel (human, UniProt Q12809). The experiment can be described thus: primary screen, population patch clamp on CHO cells stably expressing hERG.
Chain of human ether-à-go-go-related gene (hERG) potassium channel (Q12809 whole entry, looked up): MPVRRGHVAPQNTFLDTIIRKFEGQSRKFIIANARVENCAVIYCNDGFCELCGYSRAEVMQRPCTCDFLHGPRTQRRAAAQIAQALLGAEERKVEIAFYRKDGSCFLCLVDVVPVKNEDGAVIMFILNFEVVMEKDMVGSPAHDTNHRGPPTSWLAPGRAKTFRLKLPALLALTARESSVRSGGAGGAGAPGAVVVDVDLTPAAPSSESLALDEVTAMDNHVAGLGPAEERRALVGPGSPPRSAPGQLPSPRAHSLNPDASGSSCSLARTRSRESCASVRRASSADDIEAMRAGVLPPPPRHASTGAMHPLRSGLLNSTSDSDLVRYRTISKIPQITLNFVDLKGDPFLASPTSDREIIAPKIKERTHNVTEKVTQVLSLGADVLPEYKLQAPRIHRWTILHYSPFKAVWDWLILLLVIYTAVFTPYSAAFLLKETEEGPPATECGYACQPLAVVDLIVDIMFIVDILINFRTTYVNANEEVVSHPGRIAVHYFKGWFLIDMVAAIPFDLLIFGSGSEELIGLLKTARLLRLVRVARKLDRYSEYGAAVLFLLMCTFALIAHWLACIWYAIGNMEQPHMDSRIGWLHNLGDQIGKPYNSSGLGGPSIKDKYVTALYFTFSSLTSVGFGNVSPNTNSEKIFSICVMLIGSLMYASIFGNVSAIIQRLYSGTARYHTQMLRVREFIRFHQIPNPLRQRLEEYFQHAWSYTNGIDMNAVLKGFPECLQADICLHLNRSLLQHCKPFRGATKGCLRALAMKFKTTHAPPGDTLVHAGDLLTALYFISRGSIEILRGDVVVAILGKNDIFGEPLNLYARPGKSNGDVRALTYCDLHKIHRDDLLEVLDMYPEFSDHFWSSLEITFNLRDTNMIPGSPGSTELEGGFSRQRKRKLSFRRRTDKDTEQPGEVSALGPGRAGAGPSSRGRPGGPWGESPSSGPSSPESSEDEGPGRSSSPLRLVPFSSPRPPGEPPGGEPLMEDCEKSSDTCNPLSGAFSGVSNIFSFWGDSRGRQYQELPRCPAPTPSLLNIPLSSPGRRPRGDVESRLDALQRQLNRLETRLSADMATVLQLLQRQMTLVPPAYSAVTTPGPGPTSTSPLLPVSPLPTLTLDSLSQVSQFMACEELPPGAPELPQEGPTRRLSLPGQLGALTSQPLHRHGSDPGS
For `Cc1nn(CCc2n[nH]c(=S)n2-c2cccc(Cl)c2)c(C)c1[N+](=O)[O-]`, the “hERG current change (%, negative = inhibition) at 1uM” value stood at 8.14%. With `O=C(O)c1cc(S(=O)(=O)N2CCCC2)ccc1Br` the figure was 4.87%. Regarding `CN1CCc2c(sc3nc(NCCO)n(-c4cccc(Cl)c4)c(=O)c23)C1`, the “hERG current change (%, negative = inhibition) at 1uM” value is on record as 3.45%. With `CN(CC(=O)Nc1ccc(F)c(F)c1F)C(=O)C1=NN(c2ccccc2)C(=O)CC1` the figure was 3.64%. In the case of `O=C(O)c1cccc(NC(=O)c2cccc(S(=O)(=O)N3CCc4ccccc43)c2)c1`, the “hERG current change (%, negative = inhibition) at 1uM” value was 11%. `CSc1nnc(NC(=O)c2nc(S(=O)(=O)Cc3ccccc3)ncc2Cl)s1`: the “hERG current change (%, negative = inhibition) at 1uM” value was 10.8%. To `CCOC(=O)c1ccccc1C(=O)OCC` belongs 6.75%; to `C=CCNC(=O)c1ccccc1NC(=O)c1ccccc1C`, 10.2%.

On to `Cc1ccc(-n2ncc3c(NCc4ccccn4)ncnc32)c(C)c1`, for which the “hERG current change (%, negative = inhibition) at 1uM” value is listed as 3.64%. Take `c1ccc(-c2noc(C34CC5CC(CC(C5)C3)C4)n2)cc1`: the “hERG current change (%, negative = inhibition) at 1uM” value amounted to 13.5%. To `COCCNC(=O)CN(C(=O)c1ccc(N2CCCC2)nc1)c1ccc(Cl)cc1` belongs 8.93%; to `O=C(O)c1nn2c(c1Br)NC(c1ccccc1)CC2C(F)(F)F` (stereo not drawn), 12.3%. For the compound `CCC1C2CC3C4N(C)c5ccccc5C45CC(C2C5O)N3[C@@H]1O` (stereo partly drawn), the “hERG current change (%, negative = inhibition) at 1uM” value turned out to be 5.91%.

On to `Cc1ccc(C2=NCCn3nc4cc([N+](=O)[O-])ccc4c32)cc1`, for which the “hERG current change (%, negative = inhibition) at 1uM” value was determined as 16.4%. On to `Cc1cc(-c2nnc(CSc3nnc(NC(=O)c4ccc(C(C)(C)C)cc4)s3)o2)ccc1[N+](=O)[O-]`, for which the “hERG current change (%, negative = inhibition) at 1uM” value amounted to 6.27%. With `Cc1cc2c(cc1S(=O)(=O)NC1CCCCC1C)OCC(=O)N2` (stereo not drawn) the figure was 5.01%.

As to `Cc1ccc(CNC(=O)C2CCN(S(=O)(=O)c3cccnc3)CC2)cc1`, the “hERG current change (%, negative = inhibition) at 1uM” value is listed as 18.4%. `Cc1cccc(-c2noc(CCC(=O)Nc3ccccc3)n2)c1`: the “hERG current change (%, negative = inhibition) at 1uM” value came out at 3.2%. Regarding `Cc1ccc(-n2c(C)cc(C=C(C#N)C#N)c2C)cc1`, the “hERG current change (%, negative = inhibition) at 1uM” value is 16.2%.

`O=C(Nc1ccc(NC(=O)C2CCCCC2)nc1)c1ccco1`: the “hERG current change (%, negative = inhibition) at 1uM” value is listed as -0.667%.

Regarding `O=C(NCc1cn2ccsc2n1)Nc1ccc(Cl)cc1`, the “hERG current change (%, negative = inhibition) at 1uM” value was 9.77%. With `Cc1cc([N+](=O)[O-])nn1CC(=O)NCc1ccccc1` the figure was 16.9%; with `O=C(CCNS(=O)(=O)c1ccccc1C(F)(F)F)NCc1ccc2c(c1)OCO2`, 5.56%; with `Oc1ccccc1C=Nc1cccc2ccccc12`, 10.4%.

Regarding `C#CCn1c(=NC(=O)CN2C(=O)CCC2=O)sc2cccc(OC)c21`, the “hERG current change (%, negative = inhibition) at 1uM” value was 8.09%. `N#Cc1ccsc1NC(=O)CN1C(=O)NC2(CCCCC2)C1=O`: the “hERG current change (%, negative = inhibition) at 1uM” value was determined as 11.1%. Turning to `CCCCC1(C(=O)OC)NC(c2ccc(O)cc2)C2C(=O)N(c3ccccc3)C(=O)C21` (stereo not drawn), the “hERG current change (%, negative = inhibition) at 1uM” value turned out to be 10.3%. Take `O=C(C[n+]1ccsc1)c1ccccc1.[Br-]`: the “hERG current change (%, negative = inhibition) at 1uM” value came out at 8.2%. Consider `Cc1c(NC(=O)CN2CCN(C(c3ccccc3)c3ccccc3)CC2)c(=O)n(-c2ccccc2)n1C`, for which the “hERG current change (%, negative = inhibition) at 1uM” value is on record as -3.69%. On to `CCOc1ccccc1N1CCN(C(=O)CCCc2nc3ccccc3s2)CC1`, for which the “hERG current change (%, negative = inhibition) at 1uM” value is 0.595%. With `COc1cccc(C(=O)Nc2nnc(S(=O)(=O)N3CCCCC3)s2)c1` the figure was 18.6%; with `CCC(=O)Nc1c(C)cc(C)cc1Cl`, 10.5%. Regarding `Clc1ccc(Cc2ccc(Cl)nn2)c(Cl)c1`, the “hERG current change (%, negative = inhibition) at 1uM” value is -2.56%. On to `Cn1c(=O)[nH]c(=O)c2c1nc(Br)n2C/C=N/NC(N)=S`, for which the “hERG current change (%, negative = inhibition) at 1uM” value amounted to 6.1%. With `NC(=O)N/N=C/c1cn(-c2ccccc2)nc1-c1cccnc1` the figure was 7.48%; with `Cc1ccc(OCCN2C(=O)c3ccccc3C2=O)cc1`, -8.33%. With `O=C(NCCc1csc(-c2ccc(C(F)(F)F)cc2)n1)c1cccs1`, the “hERG current change (%, negative = inhibition) at 1uM” value is recorded as 9.66%. With `N#C/C(C(N)=O)=C1/CCc2ccccc2N1`, the “hERG current change (%, negative = inhibition) at 1uM” value was 4.06%. As for `CC1(C)CC(=O)C2=C(C1)OC(N)=C(C#N)C2c1ccc[nH]1` (stereo not drawn), the “hERG current change (%, negative = inhibition) at 1uM” value is reported as 12.1%.

Consider `CCc1ccc(Nc2ncccc2C#N)cc1`, for which the “hERG current change (%, negative = inhibition) at 1uM” value came out at 5.27%.

For the compound `Cn1c(=O)c2c(nc(CN3CCN(c4ccccc4)CC3)n2CCCc2ccccc2)n(C)c1=O`, the “hERG current change (%, negative = inhibition) at 1uM” value came to 0.856%. With `CCOC(=O)c1c(NC(=O)C2CC(Cl)=CCC2C(=O)O)sc2c1CC(C)(C)OC2` (stereo not drawn) the figure was 18.8%. To `Oc1c(C(Nc2ccccn2)c2ccccn2)ccc2cccnc12` (stereo not drawn) belongs 7.89%; to `O=C(OCC(=O)N(CCc1ccccc1)Cc1ccccc1)c1ccccc1NCCO`, 10.6%; to `O=C(Cc1cccs1)Nc1ccc(-c2nc3ccccc3[nH]2)cc1`, 9.62%. Consider `NS(=O)(=O)OCC1CCCCC1`, for which the “hERG current change (%, negative = inhibition) at 1uM” value was determined as 13.4%.

With `O=C(CCc1nc2cccnc2n1Cc1ccccc1)NCCc1ccc(Cl)cc1`, the “hERG current change (%, negative = inhibition) at 1uM” value is given as -65.2%.

With `O=C(NCC(O)c1ccccc1)c1ccccc1` (stereo not drawn), the “hERG current change (%, negative = inhibition) at 1uM” value came out at 15.2%. With `CC(C)NC(=O)COc1ccccc1C#N`, the “hERG current change (%, negative = inhibition) at 1uM” value amounted to 12.1%. Regarding `O=C(Nc1ccc2sccc2c1)c1ccc(Cl)s1`, the “hERG current change (%, negative = inhibition) at 1uM” value stood at 6.75%. With `O=C(CN1CCN(c2ccc(Cl)cc2)CC1)c1ccc2c(c1)OCO2` the figure was 1.86%; with `c1ccc(N2CCN(Cc3ccsc3)CC2)nc1`, -0.566%; with `O=C(CCc1nnc2ccc(NCc3ccco3)nn12)Nc1cc(F)ccc1F`, 8.22%. As to `CC(SC#N)C(=O)C12CC3CC(CC(C3)C1)C2` (stereo not drawn), the “hERG current change (%, negative = inhibition) at 1uM” value was determined as 2.38%.

With `O=C(Nc1ccc(OC(=O)c2cccnc2)cc1)c1cccnc1`, the “hERG current change (%, negative = inhibition) at 1uM” value is on record as 7.98%. With `Clc1ncnc2scc(-c3ccc(Br)cc3)c12` the figure was 6.74%; with `O=C(c1cccs1)N(c1ccc(F)cc1)C1C=CS(=O)(=O)C1` (stereo not drawn), 5.92%; with `O=C(NC1CCS(=O)(=O)C1)c1cccnc1` (stereo not drawn), 1.54%. On to `COc1ccc(/C=C/C(=O)NC(C)CCc2ccccc2)cc1` (stereo not drawn), for which the “hERG current change (%, negative = inhibition) at 1uM” value is given as -1.57%. In the case of `Cn1c(CSCc2ccc(Cl)cc2)n[nH]c1=S`, the “hERG current change (%, negative = inhibition) at 1uM” value is on record as 14.3%. Consider `CCNC(=O)CC1C(=O)N(c2ccc(C)cc2)C(=O)N1CCOC` (stereo not drawn), for which the “hERG current change (%, negative = inhibition) at 1uM” value is on record as 15.9%.

As to `O=C(CS(=O)(=O)c1ccccc1)Nc1ccccn1`, the “hERG current change (%, negative = inhibition) at 1uM” value is listed as 25.4%. To `CCOC(=O)C1CCN(C(=O)c2ccccc2NC(C)=O)CC1` belongs 13.1%; to `O=C(c1cccs1)N1CCn2c1nc1ccccc12`, -16.9%. With `CCOC(=O)c1sc(=NC(=O)c2cccc(C)c2)n(C)c1C` the figure was 7.92%; with `O=C(Nc1ccc(-c2csnn2)cc1)C1CC1`, 13.5%; with `O=C(Nc1ccc(N2CCCCCC2)cc1)c1cccc(S(=O)(=O)N2CCOCC2)c1`, 3.22%.

As for `COc1ccccc1NC(=O)Nc1nc(CC(=O)N2CCN(c3ccccc3F)CC2)cs1`, the “hERG current change (%, negative = inhibition) at 1uM” value was 21.8%. With `COc1ccccc1C(=O)NC(CCSC)C(=O)NNC(=O)C(C)Oc1ccccc1F` (stereo not drawn) the figure was 6.34%. With `O=C(COc1ncnc2scc(-c3ccccc3)c12)NCCN1C(=O)CSC1=O` the figure was 4.5%; with `COc1ccc(SCCN2CC[C@@H](C(C)(C)C)CCC2=O)cc1`, 11.7%.

Take `COc1ccc(NC(=O)CSc2nc3nc(C)cc(C)n3n2)cc1`: the “hERG current change (%, negative = inhibition) at 1uM” value was 3.09%. On to `COc1cc(C(=O)Nc2ccccc2N2CCOCC2)ccc1OCC(=O)N1CCOCC1`, for which the “hERG current change (%, negative = inhibition) at 1uM” value is recorded as 19.9%. Turning to `Cc1[nH]nc2c1C(c1cnn(C)c1)C(C#N)=C(N)O2` (stereo not drawn), the “hERG current change (%, negative = inhibition) at 1uM” value was -9.29%. `CC(NC(=O)c1cc(-c2ccccc2)on1)c1ccccc1` (stereo not drawn): the “hERG current change (%, negative = inhibition) at 1uM” value came to 12.1%. As to `c1ccc(N2CCCCC2)c(Nc2nc3ccccc3n3cnnc23)c1`, the “hERG current change (%, negative = inhibition) at 1uM” value came out at 10.4%.

In the case of `CCOc1ccc(-c2nc(CSCC(=O)NC3CC3)c(C)o2)cc1`, the “hERG current change (%, negative = inhibition) at 1uM” value was determined as 15.1%.

Regarding `CC1=C(C(=O)OC(C)C)C(c2cccs2)NC(=O)N1` (stereo not drawn), the “hERG current change (%, negative = inhibition) at 1uM” value worked out at 13.9%. As for `CC(CC(=O)N1CCc2ccccc21)c1ccccc1` (stereo not drawn), the “hERG current change (%, negative = inhibition) at 1uM” value was -1.81%. To `CC(C(=O)Nc1sc2c(c1C(=O)NCC1CCCO1)CCC2)N1C(=O)c2ccccc2C1=O` (stereo not drawn) belongs 14.4%; to `O=C(NCc1cccs1)c1cc(-c2ccccc2)nn1CC1CC(c2cccnc2)=NO1` (stereo not drawn), -17.7%; to `CCOC(=O)C1(CCOc2ccccc2)CCN(C2Cc3ccccc3C2)CC1`, -16.8%. With `O=C(Nc1ccccc1)c1ccccc1N=Cc1cccc(O)c1`, the “hERG current change (%, negative = inhibition) at 1uM” value is given as 12.7%. To `CCOC(=O)C1CCCN(C(=O)c2cccs2)C1` (stereo not drawn) belongs 14.5%; to `c1cc(CNCCCN2CCOCC2)ccn1`, 6.18%; to `O=C(COC(=O)c1ccccc1)c1ccc(Br)cc1`, 8.24%. As to `Cc1nnc(SCc2nnc(-c3cccs3)o2)n1C1CCCCC1`, the “hERG current change (%, negative = inhibition) at 1uM” value is recorded as 10.4%. For the compound `COc1ccccc1/C=C1\SC(=O)N(CCC(=O)NNC(=O)c2ccccc2Cl)C1=O`, the “hERG current change (%, negative = inhibition) at 1uM” value turned out to be 9.9%.

For `Cc1cccnc1NC(=O)c1ccc(S(=O)(=O)N2CCCCCC2)cc1`, the “hERG current change (%, negative = inhibition) at 1uM” value is on record as 11.1%.

As to `CCOc1ccc(NC(=O)c2nccnc2CO)cc1`, the “hERG current change (%, negative = inhibition) at 1uM” value is recorded as -4.47%.

Regarding `COc1ccc(NC(=O)COC(=O)c2ccccc2SCC(=O)N2CCCC2)cc1`, the “hERG current change (%, negative = inhibition) at 1uM” value is reported as -37%. Consider `COC(=O)c1ccc(C(=O)OC)c(NC(=S)N2CCCC(CO)C2)c1` (stereo not drawn), for which the “hERG current change (%, negative = inhibition) at 1uM” value is recorded as 9.6%.

As for `CC(NS(C)(=O)=O)C(c1cccs1)N1CCN(c2ccccc2)CC1` (stereo not drawn), the “hERG current change (%, negative = inhibition) at 1uM” value is given as -0.402%.
